# Source: PubChem BioAssay AID1347165 (National Center for Advancing Translational Sciences (NCATS), 2019)
# Hit rate of the full screen: of about 220,000 compounds, about 5,700 (2.6%) were called active. Inconclusive means that the source gave no clear call. Such entries were picked first, then a sample of the others. The call rests on the fitted dose curve; in most records, active means well fitted inhibition curve with a large enough effect; inconclusive means small, poorly fitted or top-dose-only effect; inactive means no such curve, though single readings can be large or run the other way. Where the call is inconclusive, the potency comes from a doubtful curve fit.
# Biological target: Lysine-specific demethylase 5B (Homo sapiens) (UniProt Q9UGL1)
# Test: Primary screen for KDM5B Histone Demethylases FDH-coupled qHTS; further: nearly all actives have a fitted effect of over 70% in size; on activity change, negative = inhibition: 0% is about no effect
# Details: FDH-coupled NADH fluorescence (FDH is formaldehyde dehydrogenase); activity change, negative = inhibition: at 57.7 µM (top of the series) unless noted
# Procedure, shortened: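 Inhibition is measured as reduced NADH fluorescence generation from FDH coupling to formaldehyde release. Truncated KDM5BΔAP at 200 nM final acts on H3K4me3 peptide (12.5 µM in substrate mix) in pH 7.5 HEPES buffer with Tween-20, 30 min, room temperature.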
# Potency means the concentration at half of the fitted maximal effect; tags describe the fitted curve by direction and shape.
# Chain of UniProt Q9UGL1 (Q9UGL1 whole entry, looked up): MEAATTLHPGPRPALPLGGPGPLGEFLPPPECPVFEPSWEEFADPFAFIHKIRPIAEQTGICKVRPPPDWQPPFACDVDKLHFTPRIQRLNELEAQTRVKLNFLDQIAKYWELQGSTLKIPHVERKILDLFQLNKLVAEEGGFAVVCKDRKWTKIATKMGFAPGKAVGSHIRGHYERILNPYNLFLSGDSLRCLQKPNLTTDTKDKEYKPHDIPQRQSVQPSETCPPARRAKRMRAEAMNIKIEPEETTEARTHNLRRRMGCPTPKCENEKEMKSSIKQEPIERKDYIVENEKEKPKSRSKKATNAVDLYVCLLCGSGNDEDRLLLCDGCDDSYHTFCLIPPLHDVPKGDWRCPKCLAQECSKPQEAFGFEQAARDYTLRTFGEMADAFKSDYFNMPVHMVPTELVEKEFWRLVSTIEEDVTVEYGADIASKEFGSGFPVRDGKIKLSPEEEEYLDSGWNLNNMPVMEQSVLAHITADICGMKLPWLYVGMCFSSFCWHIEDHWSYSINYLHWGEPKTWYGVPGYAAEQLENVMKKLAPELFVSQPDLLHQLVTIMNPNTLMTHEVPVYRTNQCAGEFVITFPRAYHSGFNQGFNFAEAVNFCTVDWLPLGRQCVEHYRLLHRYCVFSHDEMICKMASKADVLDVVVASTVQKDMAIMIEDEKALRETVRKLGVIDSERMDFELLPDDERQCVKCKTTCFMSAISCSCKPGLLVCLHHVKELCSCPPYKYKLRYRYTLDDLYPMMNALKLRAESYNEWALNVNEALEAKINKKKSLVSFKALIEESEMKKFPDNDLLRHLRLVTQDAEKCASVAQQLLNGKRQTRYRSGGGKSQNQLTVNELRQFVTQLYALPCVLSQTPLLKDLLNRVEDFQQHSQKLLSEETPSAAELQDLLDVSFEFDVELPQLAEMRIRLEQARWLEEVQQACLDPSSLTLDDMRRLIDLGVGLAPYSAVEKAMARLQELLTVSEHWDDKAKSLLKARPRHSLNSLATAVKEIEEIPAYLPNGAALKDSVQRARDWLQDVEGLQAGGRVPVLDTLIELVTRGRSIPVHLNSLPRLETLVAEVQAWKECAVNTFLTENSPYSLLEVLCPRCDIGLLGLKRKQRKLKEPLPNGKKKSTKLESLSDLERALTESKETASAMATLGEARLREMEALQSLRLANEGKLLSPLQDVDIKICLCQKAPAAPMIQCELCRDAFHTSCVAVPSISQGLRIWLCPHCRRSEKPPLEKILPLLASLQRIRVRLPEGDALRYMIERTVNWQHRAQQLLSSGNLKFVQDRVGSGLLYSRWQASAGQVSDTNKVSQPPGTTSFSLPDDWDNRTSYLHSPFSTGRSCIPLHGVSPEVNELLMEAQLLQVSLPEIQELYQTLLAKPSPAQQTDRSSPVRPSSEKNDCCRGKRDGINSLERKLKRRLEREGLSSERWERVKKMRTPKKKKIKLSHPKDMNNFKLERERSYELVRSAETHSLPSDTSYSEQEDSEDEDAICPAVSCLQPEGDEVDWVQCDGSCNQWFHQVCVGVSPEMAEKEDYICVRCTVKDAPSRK
Compound,"activity change, negative = inhibition",Potency
Cc1ccc(-c2n[nH]c(-c3ccccn3)n2)cc1,inactive: 42.1%,
CCC(Oc1ccccc1)C(=O)Nc1ccc2oc(-c3ccc(OC)cc3)nc2c1 (stereo not drawn),,"inconclusive: 4.47 µM [inhibitor, partial curve, poor fit]"
CSc1ccc(CCNC(=O)C2CCCN(c3nn4cc(-c5ccc(F)cc5)nc4s3)C2)cc1 (stereo not drawn),,"inconclusive: 28.2 µM [inhibitor, partial curve, poor fit]"
Cc1noc([C@@H]2CNC[C@H]2C(=O)N(C)Cc2ccc(N3CCOCC3)cc2)n1,,"inconclusive: 35.5 µM [inhibitor, partial curve, poor fit]"
O=C(Cc1cccc(F)c1)NC1CCN(c2cc(-c3ccc(F)cc3)[nH]n2)C1 (stereo not drawn),,"inconclusive: 11.2 µM [inhibitor, partial curve]"
O=C(Nc1cccc2c1CCCC2)c1cc(Cl)nc(Cl)c1,inactive: 2.11%,
Cc1noc(C)c1Cn1cc2c3c(cccc31)[C@H](CC(C)C)N[C@H](C(=O)NCCN(C)C)C2,,"inconclusive: 22.4 µM [inhibitor, single point]"
COc1ccccc1-c1nc(C2CC(=O)N(C3CCCCC3)C2)no1 (stereo not drawn),,active: 20 µM
COc1cccc(NC(=O)Cn2cc(S(=O)(=O)N3CCCC3)c(S(=O)(=O)N3CCCC3)c2)c1,inconclusive: -41.3% [inhibitor] [at 11.5 µM],
CCOc1ccccc1CNC(=O)c1cc2cc(S(=O)(=O)N3CCCCC3)ccc2n1C,,"inconclusive: 17.8 µM [inhibitor, partial curve, poor fit]"
C[S+](=O)([O-])N1CC2(CCCN2Cc2ccccn2)Cc2ccccc21 (stereo not drawn),,"inconclusive: 56.2 µM [inhibitor, partial curve, poor fit]"
CCc1cccc(NC(=O)c2ccc(CN3C(=O)C(C)=C(c4ccc(OC)cc4)S3(=O)=O)cc2)c1,,"inconclusive: 28.2 µM [inhibitor, partial curve, poor fit]"
CNS(=O)(=O)c1ccc(C)c(C(=O)Nc2ccc(N3CCCCC3)c3ccncc23)c1,,"inconclusive: 31.6 µM [inhibitor, single point]"
COc1cccc(C(=O)N[C@H]2[C@H](O)[C@H](O)C[C@@H]2c2ccc(N3CCOCC3)nc2)c1,,active: 35.5 µM
Cc1nc(NCCN2CCCC(C(N)=O)C2)c2cccnc2n1 (stereo not drawn),,active: 25.1 µM
CCCCCOc1ccc(/C=C/C(=O)c2ccc(O)cc2)cc1OC,,"inconclusive: 39.8 µM [inhibitor, single point]"
CC(=O)c1cc(Cl)ccc1OCC(=O)N1CCC(c2ccccc2)=N1,inactive: -3.79%,
COc1ccc(-c2noc(CSCC(=O)Nc3cccc(C(F)(F)F)c3)n2)cc1OC,,"inconclusive: 12.6 µM [inhibitor, partial curve, poor fit]"
CS(=O)(=O)c1ccc(C(=O)CSc2ccc(F)cc2)cc1,,"inconclusive: 25.1 µM [inhibitor, single point]"
COCCOc1cc(C)c2c(c1C)C[C@H]([C@H](C)C(=O)Nc1ccccn1)CC2,,"inconclusive: 56.2 µM [inhibitor, partial curve, poor fit]"
Cc1ccc(-c2cc(C(=O)Nc3ccccc3C(N)=O)c3ccccc3n2)o1,,"inconclusive: 25.1 µM [inhibitor, partial curve, poor fit]"
Cc1cccc(-c2nc(C#N)c(NCC(C)C)o2)c1,,"inconclusive: 28.2 µM [inhibitor, partial curve, poor fit]"
CCc1ccc(CN2CCCC(c3nnc(CN4CCCC4)n3C)C2)cc1 (stereo not drawn),,"inconclusive: 39.8 µM [inhibitor, partial curve, poor fit]"

Compound,"activity change, negative = inhibition",Potency
CSc1nc(N)c2c(n1)NC1=C(C(=O)CC(C)(C)C1)C2c1ccc(F)cc1 (stereo not drawn),,"inconclusive: 25.1 µM [inhibitor, partial curve, poor fit]"
CC(C)CCN(Cc1ccco1)C(=O)c1cc2c(Cl)nc3ccccc3c2s1,,"inconclusive: 28.2 µM [inhibitor, single point]"
Cc1ccc(S(=O)(=O)CC(=O)Nc2sc3c(c2C#N)CCCCC3)cc1,inconclusive: -35.3% [inhibitor],
CC(C)C[C@@H]1N[C@H](C(=O)NCc2cccs2)Cc2c[nH]c3cccc1c23,,"inconclusive: 50.1 µM [inhibitor, single point]"
CC(C(=O)Nc1ccc(F)cc1)N(C)Cc1ccc2c(c1)OCCO2 (stereo not drawn),inactive: -4.73%,
COc1ccc(C)cc1NC(=O)CNC(=O)NOCc1ccccc1,inactive: 5.09%,
CCCn1cc(-c2ccncc2)cc1C(=O)N1CCN(c2ccccn2)CC1,,"inconclusive: 28.2 µM [inhibitor, partial curve, poor fit]"
Cc1cc(CN2CCC(N3Cc4ccccc4C3=O)CC2)on1,,inactive
CCOC(=O)Cn1c(CN2CCN(C(=O)OCC)CC2)nc2c1c(=O)n(C)c(=O)n2C,inactive: 14.7%,
O=C(CCNC(=O)c1ccccc1Cl)Nc1nc2ccc(SC(F)F)cc2s1,inactive: 12.2%,
COc1cccc(C2C(C(=O)OC(C)C)=C(C)N=C3SC=C(CC(=O)N4CCCC4)N32)c1OC (stereo not drawn),,"inconclusive: 31.6 µM [inhibitor, partial curve, poor fit]"
O=C(c1ccncc1)N1CC2CCC(C1)N2Cc1ccc(-c2ccsc2)cc1,,inactive
CN1CCCCCC(O)c2cc(C(=O)N3CCOCC3)ccc21 (stereo not drawn),,"inconclusive: 22.4 µM [inhibitor, partial curve, poor fit]"
O=C1Nc2ccc(S(=O)(=O)Nc3ccccc3O)c3cccc1c23,inconclusive: -36.2% [inhibitor] [at 11.5 µM],
CCOc1ccccc1Nc1cc(-c2ccccc2)nc(C)n1,,"inconclusive: 25.1 µM [inhibitor, single point]"
COCCn1cnc2ccc(-c3ccc4c(c3)OCO4)nc2c1=O,inactive: -8.32% [at 86.2 µM],
CN(C)CCN(CC1CCCCC1)C(=O)Nc1ccc(F)cc1,inactive: -3.86%,
FC(F)(F)C1(C(F)(F)F)C2C=CC(C2)N1c1ncccn1 (stereo not drawn),inactive: 20.9%,
O=C(Cc1ccc(CO)cc1)N1CCOC(C(F)(F)F)C1 (stereo not drawn),inactive: 26.4%,
Cc1nc2ccc(S(=O)(=O)N(CC(=O)N3CCOCC3)Cc3ccccc3)cc2s1,inactive: -4.06%,
CCOc1ccccc1CN1CCN(c2ncccc2C#N)CC1CCO (stereo not drawn),,"inconclusive: 20 µM [inhibitor, partial curve, poor fit]"
Cc1ccccc1CNC(=O)CCC[C@H]1NC[C@@H]2C[C@H]1CN(Cc1ccccc1)C2,,"inconclusive: 12.6 µM [inhibitor, partial curve]"
O=C(NCCn1ccn2nc(-c3ccc(F)cc3)cc2c1=O)c1cccc2[nH]ccc12,,active: 28.2 µM

Compound,"activity change, negative = inhibition",Potency
O=C(C1CCCCC1)N1CC[C@](O)(c2ccccc2)[C@H](N2CCCC2)C1,,active: 8.91 µM
O=C(c1ccco1)N1CCc2nc3cc(-c4ccccc4Cl)[nH]n3c(=O)c2C1,,"inconclusive: 25.1 µM [inhibitor, partial curve, poor fit]"
Fc1ccc(/C=N/Nc2cc(C(F)(F)F)ccc2Cl)cc1,,"inconclusive: 35.5 µM [inhibitor, partial curve, poor fit]"
OCc1ccc(CN2C[C@H](O)C[C@H]2c2nc(-c3ccc4c(c3)OCO4)no2)o1,,"inconclusive: 39.8 µM [inhibitor, partial curve, poor fit]"
Cc1cc(C)cc(OC(=O)c2snnc2C)c1,,"inconclusive: 1.78 µM [inhibitor, full curve, poor fit]"
CN(C(=O)CCc1nnc(-c2ccc(-c3ccccc3)cc2)o1)C1CCOCC1,,"inconclusive: 8.91 µM [inhibitor, partial curve, poor fit]"
O=C(Nc1ccc(F)cc1)C(Oc1ccc(S(=O)(=O)N2CCOCC2)cc1)c1ccccc1 (stereo not drawn),inactive: -27.5%,
Cc1nc(-c2ccc(S(=O)(=O)Nc3ccc(C)c(C)c3)cc2)co1,inactive: -7.35%,
O=C(Nc1cccc(CN2CCOC2=O)c1)N1CCCCCCC1,inactive: -2.27%,
Cc1cccc2nc3ccccc3cc12,,"inconclusive: 35.5 µM [inhibitor, partial curve, poor fit]"
Cc1ccc2nc(C)c(C)c(C(=O)NCc3nc(-c4ncccn4)no3)c2c1,,active: 28.2 µM
COc1ccc(-c2nonc2NC(=O)COc2c(C)cccc2C)cc1,inactive: 12.9%,
CCC(C)NC(=O)Nc1cc(C(=O)NC)ccc1C (stereo not drawn),inactive: -3.4%,
CNS(=O)(=O)c1ccc(-c2nc(-c3ccccc3OC(C)C)no2)o1,inactive: -15.3%,
Nc1nccnc1C(=O)Nc1ccc(SCc2cccnc2)cc1,inactive: 13.2%,
O=C(c1nc(-c2cccnc2)c2ccccn12)N1CCN(c2ncccn2)CC1,inactive: -1880%,
Cc1cccc(-c2ocnc2C(=O)Nc2ccc(C)cc2C)c1,,"inconclusive: 25.1 µM [inhibitor, single point]"
Fc1ccccc1-c1nnc([C@H]2CCN(Cc3cccc(OC(F)(F)F)c3)C2)o1,,"inconclusive: 31.6 µM [inhibitor, partial curve]"
COc1ccc(NCc2cc3cc4c(cc3n(CC(=O)Nc3ccc(C)cc3)c2=O)OCO4)cc1,,"inconclusive: 1.41 µM [inhibitor, partial curve, poor fit]"
CCN(CC)c1ccc(/C=N/NC(=O)Cc2ccc(OC)c(OC)c2)cc1,,"inconclusive: 31.6 µM [inhibitor, partial curve, poor fit]"
Cc1ccc(C)c(N2CCN(S(=O)(=O)c3c(C)nc4scc(C)n4c3=O)CC2)c1,inactive: -32.1%,
COc1ccccc1NC(=O)CSc1oc(-c2cccs2)nc1S(=O)(=O)c1ccc(Br)cc1,,"inconclusive: 25.1 µM [inhibitor, partial curve, poor fit]"
